Data as given in the supplement of paper PMC3334620.
The full ranking holds about 33,000 sequences; the median of “E-score (-0.5 to 0.5)” is about -0.021, and the highest 2% start at about 0.32. The list shows a part of the results.

Biological target: T1, Zap1 (UniProt P47043)
T1 sequence: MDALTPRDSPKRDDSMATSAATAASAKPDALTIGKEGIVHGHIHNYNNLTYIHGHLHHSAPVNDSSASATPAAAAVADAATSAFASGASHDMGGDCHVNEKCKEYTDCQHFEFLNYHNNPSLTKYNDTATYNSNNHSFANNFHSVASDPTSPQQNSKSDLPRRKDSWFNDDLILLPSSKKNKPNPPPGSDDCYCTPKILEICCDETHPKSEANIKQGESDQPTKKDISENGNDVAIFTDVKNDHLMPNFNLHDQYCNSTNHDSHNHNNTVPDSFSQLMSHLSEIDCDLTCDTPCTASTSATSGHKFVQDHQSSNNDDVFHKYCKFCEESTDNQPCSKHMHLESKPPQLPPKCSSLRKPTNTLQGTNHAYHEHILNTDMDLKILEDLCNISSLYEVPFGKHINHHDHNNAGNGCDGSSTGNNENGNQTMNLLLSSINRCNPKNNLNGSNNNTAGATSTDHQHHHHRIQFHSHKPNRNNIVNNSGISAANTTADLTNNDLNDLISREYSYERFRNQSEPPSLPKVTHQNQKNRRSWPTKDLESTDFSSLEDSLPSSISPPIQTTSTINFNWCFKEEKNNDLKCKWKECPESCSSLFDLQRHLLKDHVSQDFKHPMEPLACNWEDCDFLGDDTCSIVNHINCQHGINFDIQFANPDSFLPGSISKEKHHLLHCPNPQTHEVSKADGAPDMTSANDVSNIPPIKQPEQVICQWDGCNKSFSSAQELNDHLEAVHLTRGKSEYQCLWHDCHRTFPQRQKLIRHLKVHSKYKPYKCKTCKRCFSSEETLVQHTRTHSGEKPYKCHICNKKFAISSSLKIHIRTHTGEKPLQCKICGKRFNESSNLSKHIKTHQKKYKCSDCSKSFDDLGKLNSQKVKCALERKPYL
Assay: PBM E-score (8-mer binding enrichment) (E-score (-0.5 to 0.5)); higher = stronger / more preferred TF binding; most listed sequences are background and not binding sites
Settings: protein concentration: 200 nM; construct: GST-full length
Summary of the method: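 Masliner-normalised scans of fluorescent anti-GST signal were the basis for scoring. That signal came from GST-tagged yeast transcription factors applied at about 100-200 nM to double-stranded universal all-10-mer Agilent arrays on fresh or once-stripped slides. Each ungapped eight-base word, pooled with its reverse complement, received an E-score from the Universal PBM Analysis Suite.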

Row | Sequence | PBM E-score
1 | GTTCAGAA | 0.00591
2 | AACATTCG | -0.109
3 | AATTACCG | 0.223
4 | AGTGGATG | 0.116
5 | AACAAGAA | 0.178
6 | TACCTGAA | 0.257
7 | ACAGACCC | 0.204
8 | AAAGCCCG | -0.212
9 | AACTATCA | 0.134
10 | GTATTACA | -0.0059
11 | CTGCGCGC | -0.0505
12 | CGGTGCCA | -0.276
13 | AAAGGTGG | 0.158
14 | ACGGCCTA | 0.0308
15 | ACCTGAGC | 0.0875
16 | ACGATTAA | 0.0622
17 | ACTCAGAT | 0.0449
18 | AGATGGCA | -0.151
19 | TCCGCGCA | -0.0155
20 | AGCGGTCA | 0.311
21 | TCTATTCA | 0.0189
22 | CATTCGGC | -0.169
23 | GGCTGACA | -0.177
24 | AATACAGA | 0.167
25 | TACTTCTA | -0.00314

Row | Sequence | PBM E-score
26 | ACGAGAGG | -0.0582
27 | CGTACATA | 0.0382
28 | AAGCCGAG | -0.118
29 | GCGAATCC | -0.0914
30 | ACCCGACT | 0.13
31 | GTTTTGTA | 0.275
32 | GACGCGAC | -0.0898
33 | CTCCCTTC | -0.269
34 | CTCTTGAC | -0.00413
35 | AACGGGTC | 0.151
36 | AGCAAGAT | -0.153
37 | CTAATCCA | -0.0467
38 | CAGAACCG | 0.111
39 | GAACTATC | -0.165
40 | TAGCCCAA | -0.00536
41 | CAACAAAC | 0.123
42 | GTGCACAC | -0.159
43 | ACACTCTG | 0.0251
44 | ACTCTGCG | -0.0257
45 | CCGCCACC | 0.017
46 | ATAGCGCG | 0.0047
47 | GCTTCTCC | -0.378
48 | CTGGTACC | 0.286
49 | TTCGCCAA | -0.133
50 | CATCGGCG | -0.248

Row | Sequence | PBM E-score
51 | ACAGTGAC | 0.088
52 | CGTCAATA | 0.0585
53 | ATGCGGAC | -0.126
54 | GGTACCAC | 0.362
55 | ATTTGGCG | -0.00681
56 | AGACTCGA | -0.108
57 | CTCTGGAC | 0.11
58 | CTCGGCTA | -0.211
59 | GCATAAGA | 0.0335
60 | ATAGTACC | 0.146
61 | ATTGCCAG | -0.0236
62 | AATACCAC | 0.0878
63 | AAATTTTG | -0.0366
64 | ACTGTCCT | -0.0589
65 | AATTTCGG | 0.0226
66 | AAGTCAGC | -0.081
67 | AGCACTGC | -0.345
68 | GCGCTAGA | -0.113
69 | TAACTCTA | 0.0222
70 | CAGAACAC | -0.00853
71 | TGGCTTAA | -0.0302
72 | AAGGTTCA | 0.054
73 | TCGCTAGA | -0.0403
74 | AAGAGTAT | -0.126
75 | AGCACAGC | -0.105

Row | Sequence | PBM E-score
76 | TTGGCCAA | -0.34
77 | AGGCCGAC | -0.0767
78 | CAAATCCC | -0.127
79 | CTGTCCGA | 0.0685
80 | CATATCCA | -0.0473
81 | CACAAGAC | -0.0866
82 | AACAGGCT | -0.274
83 | ATGGATCA | -0.0007
84 | AAGCCTGG | -0.149
85 | CCTGTGGC | -0.108
86 | AGTTTTAA | 0.19
87 | AGGCTACG | -0.18
88 | ACCGAACG | 0.0729
89 | GCGCGAAA | 0.108
90 | GTAAAAAC | 0.133
91 | GCTCGGAA | 0.00496
92 | GCTCCCTA | -0.279
93 | CCTAAACG | 0.0765
94 | AGCTGTGG | -0.196
95 | GACTTCGC | 0.111
96 | CTGTTTGA | 0.0708
97 | CGCTGTTC | -0.112
98 | AATGTAGG | 0.0567
99 | AGTCCCTG | -0.154
100 | CCCTAGAC | -0.0103

Row | Sequence | PBM E-score
101 | AGCGGGTG | 0.0727
102 | GCAAGGGA | -0.216
103 | ATATTATC | -0.0253
104 | ACCTTCAC | 0.243
105 | GATTACAC | 0.123
106 | AGTCGCTA | -0.0231
107 | CATAGCCA | -0.0377
108 | CTAGGCCC | -0.291
109 | GTGGGACA | -0.0823
110 | CAAGTCCC | -0.135
111 | CACTGAAA | 0.109
112 | GACCGTAC | -0.11
113 | ATCCTATA | 0.0245
114 | ATGTCCAC | 0.00035
115 | CGATAATC | -0.0951
116 | ACGTCACC | 0.0378
117 | AAATCAAC | 0.0373
118 | CTCGCTCC | -0.122
119 | ACACCAGG | -0.0659
120 | AGGTATTC | 0.116
121 | AATACGCA | -0.0665
122 | ACGCGGGC | -0.215
123 | AGCGAGCA | -0.159
124 | GTCGCCTA | -0.0377
125 | CCACGGAC | -0.0588

Row | Sequence | PBM E-score
126 | CGAGCCAA | -0.189
127 | ATATACTA | 0.159
128 | CAGAGCGG | -0.198
129 | AGTTGTTG | 0.0292
130 | CCTGCCTA | -0.186
131 | CCCGTGTA | -0.149
132 | AAGAAACG | 0.0819
133 | TCAGTCGA | -0.0139
134 | CCTGAGAA | 0.0612
135 | GGATCCGA | -0.319
136 | GGCTACCC | 0.132
137 | GACATGTC | -0.275
138 | GTTATGCA | 0.155
139 | ATTATCTA | 0.013
140 | ACCCGGAC | 0.137
141 | AAAAAACA | 0.247
142 | GAAGGCGA | -0.269
143 | ATCATACC | 0.243
144 | CGTAACTA | 0.0577
145 | AAAAGAGC | -0.026
146 | AGTATATC | -0.106
147 | ATCGACAT | 0.00312
148 | CGGTTTTC | 0.139
149 | ATGTAGGA | 0.0775
150 | CGTTCGGC | -0.27

Row | Sequence | PBM E-score
151 | GCTGCACC | -0.15
152 | CGCATTAC | 0.0167
153 | AGAGCTTA | 0.0111
154 | ATCTCATA | 0.00164
155 | CTACCATC | -0.00011
156 | GAGGCCGC | -0.0103
157 | CCCGGAAC | 0.0109
158 | AACTGTAA | 0.285
159 | CGGGCTTA | -0.183
160 | ACCTCATC | 0.127
161 | CGGACCCG | 0.228
162 | CGTCGGCC | -0.0989
163 | ATGACAAG | -0.0631
164 | GAGCCTTA | -0.248
165 | GACTTGGC | -0.164
166 | GTACGTAC | -0.274
167 | GTCATTCA | 0.17
168 | GCAAAACA | 0.0837
169 | AATACTAT | -0.0176
170 | ACCCGTAA | 0.333
171 | CGCGGGGA | 0.142
172 | CCCTCGAC | -0.151
